“And” between values parts separate entries of the source, which are not always exact repeats. Equal values may be shown once. The shares of active, inactive and inconclusive entries below differ from those in the screen. A potency beside an inconclusive call is a rough fit, not a confirmed value. More than one record can exist for a structure, and the calls need not agree. The source made the active and inactive calls. Calls follow the shape of the dose curve; as a rule, active = well fitted curve in the direction sought with a large enough effect in the repeat runs; inconclusive = weak or mixed curves; inactive = no such curve, though single readings can be large; an effect the other way counts as inactive or inconclusive.
How the values were obtained:
[1] = A CellTox Green Cytotoxicity Assay to monitor cytotoxicity in HEK293 cells - 40 hour (AID 1224871); also: nearly all actives have a fitted effect of over 45% in size
In short: (§1)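 Cells (HEK293, 600/well) and dye reagent are dispensed together. After 5 h at 37 C, 23 nL compound is pinned in. Plates stay at 37 C for 40 h with fluorescence read at 0h, 8h, 16h, 24h, 32h and 40h.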

[2] = qHTS RealTime-Glo MT Cell Viability Assay in HEK293 cells - 40 hour (AID 1224874); conditions: RealTime-Glo luminescence; max response: stronger effect = lower value; also: nearly all actives have a fitted effect of over 50% in size
In short: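 Real-time viability in HEK293: signal arises when living cells convert a prosubstrate for NanoLuc in the medium, so luminescence tracks viable cell number. Compound (23 nL, DMSO) added 5 h post-seeding; kinetic reads at 0–40 h, 37 C.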

[3] = qHTS RealTime-Glo MT Cell Viability Assay in HEK293 cells - 16 hour (AID 1224872); also: nearly all actives have a fitted effect of over 50% in size
In short: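 Cells + reagent dispensed (600 cells/well, HEK293) → 5 h at 37 C/5% CO2 → 23 nL compound in DMSO pinned → 40 h at 37 C → luminescence read at 0, 8, 16, 24, 32, 40 h.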

[4] = A CellTox Green Cytotoxicity Assay to monitor cytotoxicity in HepG2 cells - 16 hour (AID 1224876); also: nearly all actives have a fitted effect of over 45% in size
In short: (§2)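 Cells and non-lytic dye reagent are dispensed together (600 HepG2 cells/well) and incubated 5 h before DMSO compound transfer. Kinetic fluorescence is then recorded in the same wells during 40 h at 37 C.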

[5] = A CellTox Green Cytotoxicity Assay to monitor cytotoxicity in HepG2 cells - 24 hour (AID 1224878); also: nearly all actives have a fitted effect of over 45% in size
In short: as §2

[6] = A CellTox Green Cytotoxicity Assay to monitor cytotoxicity in HepG2 cells - 40 hour (AID 1224879); also: nearly all actives have a fitted effect of over 40% in size
In short: as §2

[7] = qHTS RealTime-Glo MT Cell Viability Assay in HepG2 cells - 32 hour (AID 1224877); also: nearly all actives have a fitted effect of over 55% in size
In short: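 Real-time, nonlytic viability: 600 HepG2 cells/well mixed with NanoLuc enzyme plus prosubstrate; 5 h settle, compound (DMSO) added by pintool; luminescence monitored over 40 h at 37 C.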

[8] = A CellTox Green Cytotoxicity Assay to monitor cytotoxicity in HEK293 cells - 24 hour (AID 1224875); also: nearly all actives have a fitted effect of over 45% in size
In short: as §1

[9] = qHTS RealTime-Glo MT Cell Viability Assay in HepG2 cells - 8 hour (AID 1224873); also: nearly all actives have a fitted effect of over 55% in size
In short: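 HepG2 cells mixed with RealTime-Glo MT reagents (NanoLuc plus cell-permeant prosubstrate) were seeded at 600 cells/well, incubated 5 h at 37 C/5% CO2, then pinned with compounds in DMSO; nonlytic luminescence tracked viability during 40 h treatment.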
Potency is read from the fitted curve at half-maximal effect; tags tell the direction and shape of the fitted curve.

SMILES | Potency [1] | Potency [2] | Potency [3] | Potency [4] | Potency [5] | Potency [6] | Potency [7] | Potency [8] | Potency [9]
CCCCN1C(=O)[C@@H]([C@H](O)C2CCCCC2)NC(=O)C12CCN(Cc1ccc(Oc3ccc(C(=O)O)cc3)cc1)CC2 | inactive | inconclusive: 43.6 µM [cytotoxic, partial curve] |  |  |  |  |  |  | 
CC(Cc1cccc(C(F)(F)F)c1)NCCOC(=O)c1ccccc1 (stereo not given) | active: 21.3 µM | inconclusive: 26.8 µM [cytotoxic, partial curve, poor fit] | inconclusive: 23.9 µM [cytotoxic, single point] | inconclusive: 26.8 µM [activator, single point] | inconclusive: 26.8 µM [activator, single point] | inconclusive: 23.9 µM [activator, single point] |  |  | 
Oc1ccc(Cl)cc1Sc1cc(Cl)ccc1O | active: 38.8 µM and inactive |  | inconclusive: 21.3 µM [cytotoxic, partial curve] |  |  | active: 48.9 µM and active: 26.8 µM | inconclusive: 48.9 µM [cytotoxic, partial curve] and inconclusive: 23.9 µM [cytotoxic, single point] |  | 
C#C[C@]1(OC(C)=O)CC[C@H]2[C@@H]3CCC4=C/C(=N/O)CC[C@@H]4[C@H]3CC[C@@]21CC | inactive | inconclusive: 26.8 µM [cytotoxic, single point] |  |  |  |  |  |  | 
CCCN(CCc1cccs1)[C@H]1CCc2c(O)cccc2C1 | active: 23.9 µM | active: 21.3 µM |  | inconclusive: 23.9 µM [activator, single point] | inconclusive: 23.9 µM [activator, single point] |  |  | inconclusive: 23.9 µM [activator, single point] | 
CCCCCCCCCCCCCCCCCCOS(=O)(=O)O | inconclusive: 54.9 µM [activator, single point] | inconclusive: 61.6 µM [cytotoxic, partial curve, poor fit] |  | inconclusive: 61.6 µM [activator, single point] | inconclusive: 54.9 µM [activator, single point] | inconclusive: 61.6 µM [activator, single point] |  | inconclusive: 54.9 µM [activator, single point] | 
COc1cc(C(C)C)c2c(c1)S(=O)(=O)N(COc1cc(=O)n3cccc(OCCN4CCCCC4)c3n1)C2=O | inconclusive: 13.1 µM [activator, partial curve, poor fit] | inconclusive: 7.37 µM [rising, partial curve] |  |  | inconclusive: 13.1 µM [activator, single point] | inconclusive: 13.1 µM [activator, single point] |  |  | inconclusive: 14.7 µM [falling, partial curve, poor fit]
C[C@]12CC[C@H]3[C@@H](CCC4=CC(=O)CC[C@@]43C)[C@@H]1CC[C@@H]2C(=O)CO | inconclusive: 54.9 µM [activator, single point] and inactive | inconclusive: 23.9 µM [cytotoxic, partial curve] | inconclusive: 24.5 µM [cytotoxic, partial curve] and inconclusive: 9.52 µM [cytotoxic, partial curve, poor fit] |  | inconclusive: 54.9 µM [activator, single point] | inconclusive: 54.9 µM [activator, single point] |  |  | 
CCCC1O[C@@H]2C[C@H]3[C@@H]4CCC5=CC(=O)C=C[C@]5(C)[C@H]4[C@@H](O)C[C@]3(C)[C@]2(C(=O)CO)O1 (stereo not given in full) | inconclusive: 24.6 µM [activator, partial curve, poor fit] and inactive |  | inconclusive: 27.6 µM [cytotoxic, partial curve] and inconclusive: 43.6 µM [cytotoxic, partial curve] | inconclusive: 49 µM [activator, partial curve, poor fit] | inconclusive: 49 µM [activator, single point] | inconclusive: 55 µM [activator, single point] |  | inconclusive: 24.6 µM [activator, full curve, poor fit] | 
O=C(c1ccccc1)c1cc(Cl)ccc1O | inconclusive: 52.2 µM [activator, single point] |  | inconclusive: 52.2 µM [cytotoxic, single point] |  |  |  |  | inconclusive: 52.2 µM [activator, single point] | 
CCCC(C(=O)OCCN(CC)CC)(c1ccccc1)c1ccccc1 | inconclusive: 26.8 µM [activator, single point] |  | inconclusive: 19 µM [cytotoxic, partial curve] | inconclusive: 26.8 µM [activator, single point] | inconclusive: 26.8 µM [activator, single point] | inconclusive: 26.8 µM [activator, single point] |  | inconclusive: 26.8 µM [activator, single point] | 
